# Results from PubChem BioAssay (NCATS).
# Values joined by “and” are separate entries in the source; they are usually repeats but may differ in a detail not shown here. Equal entries are not always repeated. Inconclusive means that the source gave no clear call. Such entries were picked first, then a sample of the others. For some of these results: Potencies beside an inconclusive call are fits to weak or partial responses and may not hold up. Where a structure was tested more than once in an assay, its records may differ in their call. Active and inactive are the calls of the source. Calls follow the shape of the dose curve; as a rule, active = well fitted curve in the direction sought with a large enough effect; inconclusive = small, poorly fitted or top-dose-only effect, or another doubt; inactive = no such curve, though single readings can be large; an effect the other way counts as inactive or inconclusive.
# What was measured:
# [1] = target: Phospholipid hydroperoxide glutathione peroxidase GPX4 (Homo sapiens) (UniProt P36969); assay: Primary qHTS Assay for Inhibitors of Recombinant Selenoprotein Glutathione Peroxidase 4 (GPX4) (AID 1845192); also: nearly all actives have a fitted effect of over 65% in size; also: potency is read from the fitted curve at half-maximal effect
# Summary of the method: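 GR-coupled assay: recombinant GPX4 preincubated 30 min with compound at room temperature; final 200 nM GPX4, 1 mM GSH, 0.5 mM cumene hydroperoxide, 0.5 mM NADPH, 100 nM GR, 0.01% BSA, pH 7.5 Tris. NADPH fluorescence (340/450 nm) read at 0 and 15 min.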
# [2] = target: Glutathione peroxidase 1 (Homo sapiens) (UniProt P07203); assay: Primary qHTS Assay for Inhibitors of Recombinant Selenoprotein Glutathione Peroxidase 1 (GPX1) (AID 1845191); also: nearly all actives have a fitted effect of over 65% in size; also: potency is read from the fitted curve at half-maximal effect
# Summary of the method: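 GR-coupled assay: compounds preincubated 30 min at room temperature with GPX1, then reaction started with CHP; final 10 nM GPX1, 1 mM GSH, 0.5 mM CHP, 0.5 mM NADPH, 100 nM GR, 0.01% BSA, pH 7.5 Tris buffer. NADPH fluorescence (340/450 nm) read at 0 and 15 min.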
# [3] = Quantitative High-Throughput drug screen in 47 multiple myeloma cell lines against the NCATS MIPE library collection: FR4_PLB cell viability assay (AID 1918924; also: nearly all actives have a fitted effect of over 35% in size; also: potency is read from the fitted curve at half-maximal effect)
# Summary of the method: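 Inhibition of cell viability is measured here. Each line was plated at 500 cells per well, treated with MIPE 4.0 drugs, kept 48 hours at 37C, then assayed for ATP content by CellTiter-Glo luminescence.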
# [4] = target: Metallo-beta-lactamase type 2 (Klebsiella pneumoniae) (UniProt C7C422); assay: qHTS to identify inhibitors of the New Delhi Metallo-beta-lactamase (NDM): assay validation screen against the NCATS LOPAC Collection (AID 1794843); conditions: NDM-1 enzyme, nitrocefin hydrolysis, absorbance 485 nm; also: potency is read from the fitted curve at half-maximal effect
# Summary of the method: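 NDM-1 at 2 nM final in 50 mM HEPES pH 7.0, 1 uM ZnSO4, 0.01% Tween20, preincubated with LOPAC compounds pinned in DMSO; 50 uM nitrocefin (stock) added. Hydrolysis read as absorbance at 485 nm in the plateau phase.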
# [5] = Quantitative High-Throughput drug screen in 47 multiple myeloma cell lines against the NCATS MIPE library collection: EJM_DSMZ cell viability assay (AID 1918926; also: nearly all actives have a fitted effect of over 30% in size; also: potency is read from the fitted curve at half-maximal effect)
# Summary of the method: (§1)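 We plated 500 myeloma cells per well, pinned in MIPE 4.0 compounds, and incubated for 48 hours at 37C. ATP was then quantified with CellTiter-Glo, with DMSO and media-only wells defining 100% and 0%.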
# [6] = target: Nuclear receptor subfamily 1 group I member 3 (Homo sapiens) (UniProt Q14994); assay: Primary qHTS for agonist of constitutive androstane receptor (CAR) against the NCATS DSHEA and TCM libraries (AID 1794839); conditions: CAR agonist reporter cells, qHTS luminescence, CAR antagonist co-added at 0.75 µM; at 40 µM (top of the series);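 also: HepG2 cells expressing human CAR with a CYP2B6 reporter plus PK11195 antagonist; 0% is about no effect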
# Summary of the method: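 HepG2-CYP2B6-hCAR cells, 2,500/well, attached 5 h, then dosed with 0.75 µM PK11195 (final) for 24 h at 37 °C. Luciferase luminescence read (ONE-Glo); CellTiter-Fluor viability (Ex/Em 405/540 nm) in same wells; CITCO positive control.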
# [7] = Quantitative High-Throughput drug screen in 47 multiple myeloma cell lines against the NCATS MIPE library collection: Delta47_JCRB cell viability assay (AID 1918925; also: nearly all actives have a fitted effect of over 45% in size; also: potency is read from the fitted curve at half-maximal effect); conditions: Delta47 myeloma viability, CellTiter-Glo ATP, 48 h; viability (% of DMSO): at 45.8 µM (top of the series)
# Summary of the method: as §1
# [8] = Viability counterscreen for agonist of constitutive androstane receptor (CAR) against the NCATS DSHEA and TCM libraries (AID 1794838); conditions: HepG2 cell viability counterscreen, CAR agonist assay; co-treated with 0.75 µM CAR antagonist;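 also: HepG2 cells with CYP2B6 reporter and hCAR plus 0.75 µM PK11195 antagonist; potency is read from the fitted curve at half-maximal effect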
# Summary of the method: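 HepG2-CYP2B6-hCAR cells (2,500/well) treated 24 h at 37C with compounds plus 0.75 uM PK11195; viability read by CellTiter-Fluor fluorescence, Ex/Em 405/540 nm.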
# [9] = target: Luciferin 4-monooxygenase (Photinus pyralis) (UniProt P08659); assay: Primary firefly luciferase (FLuc) qHTS assay for identification of artifact compounds. (AID 1845220);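 also: plate controls were DMSO vehicle for no effect and no enzyme for full effect; nearly all actives have a fitted effect of over 60% in size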
# Summary of the method: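 Enzymatic FLuc inhibition assay: compounds pre-exposed to luciferin/ATP (10 uM each) for 15 min, then purified P. pyralis enzyme at 10 nM added. Read-out: luminescence at 5 min.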
# Tags tell the direction and shape of the fitted curve.
# Chain of UniProt P07203 (P07203 whole entry, looked up): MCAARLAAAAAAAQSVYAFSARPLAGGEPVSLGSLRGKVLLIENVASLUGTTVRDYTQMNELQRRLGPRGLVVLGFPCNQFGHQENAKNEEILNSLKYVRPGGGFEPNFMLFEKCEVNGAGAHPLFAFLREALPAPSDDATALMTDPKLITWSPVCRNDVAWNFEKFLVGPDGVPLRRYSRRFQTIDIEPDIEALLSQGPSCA
# Chain of UniProt P36969 (P36969 whole entry, looked up): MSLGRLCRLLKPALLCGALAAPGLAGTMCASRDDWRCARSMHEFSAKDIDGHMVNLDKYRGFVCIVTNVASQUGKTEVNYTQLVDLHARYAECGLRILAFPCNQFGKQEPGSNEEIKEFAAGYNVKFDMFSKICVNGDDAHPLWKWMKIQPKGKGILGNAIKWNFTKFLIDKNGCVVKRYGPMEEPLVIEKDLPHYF
# Chain of UniProt C7C422 (C7C422 whole entry, looked up): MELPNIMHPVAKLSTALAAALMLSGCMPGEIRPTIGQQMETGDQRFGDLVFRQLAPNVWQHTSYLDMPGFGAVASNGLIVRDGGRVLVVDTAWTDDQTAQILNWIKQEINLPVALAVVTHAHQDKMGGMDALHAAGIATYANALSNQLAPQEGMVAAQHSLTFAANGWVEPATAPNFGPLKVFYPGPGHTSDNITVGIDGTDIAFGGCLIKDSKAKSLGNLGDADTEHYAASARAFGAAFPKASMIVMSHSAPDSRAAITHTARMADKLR
# Chain of UniProt Q14994 (Q14994 whole entry, looked up): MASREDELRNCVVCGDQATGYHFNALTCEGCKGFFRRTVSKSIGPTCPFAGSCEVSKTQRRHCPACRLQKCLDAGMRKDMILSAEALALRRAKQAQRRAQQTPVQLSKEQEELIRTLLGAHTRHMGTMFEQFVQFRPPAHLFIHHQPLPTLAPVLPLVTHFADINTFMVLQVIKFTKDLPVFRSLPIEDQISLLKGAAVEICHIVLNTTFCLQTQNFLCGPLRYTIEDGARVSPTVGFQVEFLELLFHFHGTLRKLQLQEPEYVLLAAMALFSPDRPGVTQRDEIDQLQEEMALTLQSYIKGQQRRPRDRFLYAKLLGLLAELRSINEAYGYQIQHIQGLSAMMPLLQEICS
compound,measurement,setting,value
O=C(CCCCCCNC(=O)c1cnc(N(c2ccccc2)c2ccccc2)nc1)NO,Potency,[1],inactive
CCN(CC)CCNC(=O)c1c(C)[nH]c(/C=C2\C(=O)Nc3ccc(F)cc32)c1C,Potency,[2],"inconclusive: 16.1 µM [inhibitor, partial curve]"
NC(=Nc1ccccc1)Nc1ccccc1,Potency,[2],inactive
COc1ccc(S(=O)(=O)Nc2cc(-c3c(O)ccc4ccccc34)c(O)c3ccccc23)cc1,Potency,[2],"inconclusive: 0.515 µM [inhibitor, full curve]"
same,Potency,[1],"inconclusive: 25.5 µM [inhibitor, single point]"
same,Potency,[3],"inconclusive: 29.6 µM [cytotoxic, single point]"
C[C@@H](O)[C@H]1C(=O)N2C(C(=O)O)=C(S[C@@H]3CN[C@H](C(=O)N(C)C)C3)[C@H](C)[C@H]12,Potency,[2],"inconclusive: 32.1 µM [inhibitor, single point] and inconclusive: 22.7 µM [inhibitor, partial curve]"
same,Potency,[1],"inconclusive: 12.6 µM [inhibitor, partial curve, poor fit]"
C[N+]1(C)CCCC(OC(=O)C(O)(c2ccccc2)c2ccccc2)C1 (configuration not stated),Potency,[1],inactive
COc1cc(NS(C)(=O)=O)ccc1Nc1c2ccccc2nc2ccccc12,Potency,[2],active: 25.5 µM
same,Potency,[1],active: 22.4 µM
Cc1cc2c(C(C)C)c(O)c(O)c(C=O)c2c(O)c1-c1c(C)cc2c(C(C)C)c(O)c(O)c(C=O)c2c1O,Potency,[4],"inconclusive: 12.6 µM [inhibitor, partial curve]"
same,Potency,[1],active: 10.1 µM
same,Potency,[5],active: 20.9 µM
CC[C@@]1(O)C(=O)OCc2c1cc1n(c2=O)Cc2cc3c([N+](=O)[O-])cccc3nc2-1,Potency,[2],"inconclusive: 22.4 µM [inhibitor, partial curve]"
same,Potency,[1],active: 35.5 µM
CC[C@@H](C(=O)[C@@H](C)[C@@H](O)[C@H](C)CCc1ccc(C)c(O)c1C(=O)O)[C@H]1O[C@](CC)([C@H]2CC[C@](O)(CC)[C@H](C)O2)C[C@@H]1C,Potency,[1],active: 4.47 µM
O=C(O)CCC=CCC[C@@H]1[C@H](N2CCCCC2)[C@@H](O)C[C@@H]1OCc1ccc(-c2ccccc2)cc1,Potency,[1],"inconclusive: 28.2 µM [inhibitor, partial curve]"
CC[C@@]1(O)C(=O)OCc2c1cc1n(c2=O)Cc2cc3c(CN(C)C)c(O)ccc3nc2-1,Potency,[1],"inconclusive: 22.7 µM [inhibitor, single point]"
CCC(C)n1ncn(-c2ccc(N3CCN(c4ccc(OCC5COC(Cn6cncn6)(c6ccc(Cl)cc6Cl)O5)cc4)CC3)cc2)c1=O (configuration not stated),Potency,[2],"inconclusive: 3.21 µM [inhibitor, full curve]"
CCCCCCCCCCCCCCCC[N+](C)(C)CCN(Cc1ccc(OC)cc1)c1ncccn1,Potency,[2],"inconclusive: 12.8 µM [inhibitor, partial curve]"
same,Potency,[1],"inconclusive: 22.7 µM [inhibitor, single point]"
Cc1ccc(C(C)C)cc2c(C)ccc1-2,Potency,[2],"inconclusive: 20.2 µM [inhibitor, partial curve, poor fit]"
CCCC(=O)O[C@]1(C(=O)CO)CC[C@H]2[C@@H]3CCC4=CC(=O)CC[C@]4(C)[C@H]3[C@@H](O)C[C@@]21C,Potency,[1],inactive
NC(=NCCCCCCN=C(N)/N=C(\N)Nc1ccc(Cl)cc1)/N=C(\N)Nc1ccc(Cl)cc1,Potency,[2],inactive
CCOc1ccc2nc3cc(N)ccc3c(N)c2c1,Potency,[2],"inconclusive: 18 µM [inhibitor, single point]"
same,Potency,[1],"inconclusive: 18 µM [inhibitor, single point]"
COc1ccc(-c2ccc3c(N4CCOCC4)nc(N4C[C@@H](C)O[C@@H](C)C4)nc3n2)cc1CO,Potency,[2],"inconclusive: 29 µM [inhibitor, single point]"
same,Potency,[1],"inconclusive: 3.6 µM [inhibitor, single point]"
same,Potency,[5],active: 1.66 µM
CC/C(=C(\c1ccccc1)c1ccc(OCCN(C)C)cc1)c1ccccc1,Potency,[4],active: 14.1 µM
Nc1c2ccccc2nc2ccccc12,Potency,[2],active: 22.7 µM
same,Potency,[1],"inconclusive: 32.1 µM [inhibitor, single point]"
C[C@]12CCC(=O)C=C1CC[C@@H]1[C@@H]2[C@@H](O)C[C@@]2(C)[C@H]1CC[C@]2(O)C(=O)COP(=O)(O)O,Potency,[1],active: 6.31 µM
CC(C)n1cnc2c(NCCc3ccc(O)cc3)nc(-c3csc4ccccc34)nc21,Potency,[2],"inconclusive: 11.4 µM [inhibitor, partial curve]"
CC1=C(C/C=C(\C)CCC[C@H](C)CCC[C@H](C)CCCC(C)C)C(=O)c2ccccc2C1=O,Potency,[2],"inconclusive: 7.18 µM [inhibitor, full curve]"
COc1cccc2c1C(=O)c1c(O)c3c(c(O)c1C2=O)C[C@@](O)(C(=O)CO)C[C@@H]3O[C@H]1C[C@H](N)[C@H](O)[C@H](C)O1,Potency,[2],"inconclusive: 29 µM [inhibitor, single point]"
O=C1O[C@H]([C@@H](O)CO)C(O)=C1O,activation,[6],inactive: 7.27%
CC[C@H](C)n1cc(C)c2c(C(=O)NCc3c(C)cc(C)[nH]c3=O)cc(-c3ccc(N4CCNCC4)nc3)cc21,Potency,[2],"inconclusive: 32.5 µM [inhibitor, partial curve, poor fit]"
same,Potency,[1],"inconclusive: 20.2 µM [inhibitor, partial curve, poor fit]"
same,Potency,[3],"inconclusive: 37.2 µM [cytotoxic, single point]"
Oc1c(Cl)cc(Cl)c(Cl)c1Cc1c(O)c(Cl)cc(Cl)c1Cl,Potency,[2],"inconclusive: 28.6 µM [inhibitor, single point]"
same,Potency,[1],active: 25.5 µM
OC1CCC(Nc2ncc3nc(Nc4c(F)cc(F)cc4F)n([C@@H]4CCOC4)c3n2)CC1 (some centres not stated),Potency,[2],"inconclusive: 20.5 µM [inhibitor, single point]"
same,Potency,[1],"inconclusive: 20.2 µM [inhibitor, single point]"
CCc1cc(C(N)=S)ccn1,Potency,[2],"inconclusive: 16.1 µM [inhibitor, partial curve]"
same,Potency,[3],inconclusive: 0.001 µM
same,Potency,[7],"inconclusive: 0.264 µM [cytotoxic, full curve, poor fit]"
same,Potency,[5],inactive
O=C1N=C(O)CN1/N=C/c1ccc(-c2ccc([N+](=O)[O-])cc2)o1,Potency,[2],"inconclusive: 5.7 µM [inhibitor, partial curve, poor fit]"
NC[C@H]1O[C@H](O[C@H]2[C@H](O[C@@H]3O[C@H](CO)[C@@H](O)[C@H]3O)C(O)[C@H](N)C[C@@H]2N)[C@H](N)[C@@H](O)[C@@H]1O (some centres not stated),Potency,[2],"inconclusive: 3.29 µM [inhibitor, single point]"
same,Potency,[1],"inconclusive: 4.04 µM [inhibitor, single point]"
CCCCCCCC(=O)O,Potency,[8],"inconclusive: 7.94 µM [activator, partial curve, poor fit]"
same,activation,[6],inactive: -17.7%
NC(CS)C(=O)O (configuration not stated),Potency,[1],"inconclusive: 22.4 µM [inhibitor, single point]"
CN(C)c1ccc(-c2nc3ncc(Cl)c(N4CCN(CC(=O)Nc5nccs5)CC4)c3[nH]2)cc1,Potency,[2],"inconclusive: 11.2 µM [inhibitor, partial curve, poor fit]"
same,Potency,[1],"inconclusive: 4.95 µM [inhibitor, partial curve]"
same,Potency,[7],"inconclusive: 2.64 µM [cytotoxic, full curve, poor fit]"
same,Potency,[5],active: 5.9 µM
O=C(CCCCCCC(=O)Nc1ccc([C@H]2O[C@@H](CSc3nc(-c4ccccc4)c(-c4ccccc4)o3)C[C@@H](c3ccc(CO)cc3)O2)cc1)NO,Potency,[1],"inconclusive: 20.2 µM [inhibitor, single point]"
Cc1nnc(SCC2=C(C(=O)O)N3C(=O)[C@@H](NC(=O)Cn4cnnn4)[C@H]3SC2)s1,Potency,[2],"active: 20.2 µM and inconclusive: 25.1 µM [inhibitor, single point]"
Cc1c(N(C)CS(=O)(=O)O)c(=O)n(-c2ccccc2)n1C,Potency,[2],active: 3.21 µM
same,Potency,[1],active: 2 µM
CC(=O)OCC1=C(C(=O)O)N2C(=O)[C@@H](NC(=O)Cc3cccs3)[C@H]2SC1,Potency,[2],"active: 10.1 µM and inconclusive: 28.2 µM [inhibitor, single point]"
Oc1cc(-c2nc(-c3ccccc3)[nH]c2-c2ccncc2)ccc1Cl,Potency,[1],inactive
same,Potency,[3],"inconclusive: 20.9 µM [cytotoxic, partial curve]"
CC(C)(C)CC(C)(C)c1ccc(OCCOCC[N+](C)(C)Cc2ccccc2)cc1,Potency,[9],inactive
Clc1ccc2c(c1)C(N1CCNCC1)=Nc1ccccc1O2,Potency,[1],"inconclusive: 22.7 µM [inhibitor, single point]"
same,Potency,[7],"inconclusive: 33.2 µM [cytotoxic, single point]"
OCCn1cc(-c2cnc3nnn(Cc4ccc5ncccc5c4)c3n2)cn1,Potency,[1],active: 14.3 µM
same,Potency,[3],inactive
same,Potency,[5],"inconclusive: 18.7 µM [cytotoxic, partial curve]"
CN(C)c1ccc(C(=C2C=CC(=[N+](C)C)C=C2)c2ccc(N(C)C)cc2)cc1,Potency,[1],"inconclusive: 14.3 µM [inhibitor, partial curve, poor fit]"
same,Potency,[7],active: 0.0105 µM
Nc1ccn([C@@H]2O[C@H](CO)[C@@H](O)C2O)c(=O)n1 (some centres not stated),Potency,[1],inactive
same,Potency,[3],inactive
same,Potency,[7],inactive
same,Potency,[5],inactive
C#CCC(Cc1cnc2nc(N)nc(N)c2n1)c1ccc(C(=O)N[C@@H](CCC(=O)O)C(=O)O)cc1 (some centres not stated),Potency,[1],"inconclusive: 14.3 µM [inhibitor, partial curve] and inconclusive: 20 µM [inhibitor, single point]"
same,Potency,[3],"inconclusive: 0.148 µM [rising, full curve, poor fit]"
same,Potency,[7],inactive
same,Potency,[5],"inconclusive: 0.0662 µM [cytotoxic, full curve, poor fit]"
